# The supplement of paper PMC7826260
# Some of the results follow. Each Rep nickase domain was tested in vitro on the same pool of single strands for 1 h at 37 °C with 3 µM enzyme; only the middle of the 90-letter strands is printed. A value is the log2 ratio of uncut reads to the pool without enzyme; the lower, the more was cut; hits are not called. Shares of all reads are compared; uncut strands gain when others are lost, and binding without cutting may add a little.
# System: T1, Rep nickase domain of chickpea chlorotic dwarf virus
# T1 sequence (residues 1-124, tag not shown): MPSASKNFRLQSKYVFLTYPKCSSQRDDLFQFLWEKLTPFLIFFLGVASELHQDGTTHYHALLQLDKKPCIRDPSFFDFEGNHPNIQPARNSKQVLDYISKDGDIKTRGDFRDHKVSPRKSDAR
# Experiment: uncleaved DNA left, log2 of reads against the no-enzyme library (log2 ratio); higher = less cleavage (more negative = more Rep cleavage of the k-mer); sequences stand for … in CTCGTCCG…ACCGGAGA
# Method: (§1)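 A pool of 90-nt single-stranded DNAs with seven random bases just before the constant AC of the nick site (name = the seven bases) was cut by 3 µM recombinant His6-SUMO-tagged Rep nickase domain (300 nM DNA, 50 mM HEPES pH 8.0, 50 mM NaCl, 1 mM MnCl2, 1 h, 37 °C, three replicates). Uncut DNA was amplified and sequenced.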
row,Sequence,uncleaved DNA left (log2)
1,TTCTGAG,0.201
2,ACTTGTT,-2.52
3,TGGAGCC,0.395
4,ATGCACA,-0.921
5,CGCTTTA,-0.906
6,CTAGGAA,1.36
7,CGTGGTA,0.373
8,CCGAGGG,0.42
9,GAGAAAC,0.951
10,AACGGGC,0.656
11,GCGAAGT,0.39
12,CTCGCGG,1.43
13,TCGTCTC,-0.058
14,ATTTTTA,-2.26
15,TTGGCTC,-0.537
16,CATAAGT,-0.945
17,CATGGGG,-0.424
18,AATTACG,0.0325
19,CACTATG,-0.432
20,AGACGAG,0.454

row,Sequence,uncleaved DNA left (log2)
1,TTTCGAA,-0.278
2,CGCGTTA,-0.707
3,CCGTGAG,-0.111
4,GTCTTCT,0.642
5,GTCGGCA,0.972
6,ACCGCTT,-1.91
7,CCGGGGT,0.99
8,CGCCGGG,0.707
9,TGCTCCT,-1.2
10,ACGGCAA,0.143
11,TCTACAC,-1.58
12,TGCTCTA,-0.712
13,TCCCAAC,-1.09
14,TTCAGCT,-1.46
15,CCCAAAT,-0.672
16,CACCCGG,1.12
17,CTTGGGC,-0.205
18,ACGTGCA,-0.732
19,TAGGCTC,0.077
20,TTACCTT,-2.9

# System: T2, Rep nickase domain of faba bean necrotic yellows virus
# T2 sequence (residues 1-98, tag not shown): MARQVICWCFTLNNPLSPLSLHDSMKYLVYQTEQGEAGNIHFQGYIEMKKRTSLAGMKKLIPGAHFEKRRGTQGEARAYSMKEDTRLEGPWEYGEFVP
# Experiment: as above
# Method: as §1
row,Sequence,uncleaved DNA left (log2)
1,TTCTGAG,0.208
2,ACTTGTT,0.0488
3,TGGAGCC,-0.123
4,ATGCACA,0.000899
5,CGCTTTA,-0.0266
6,CTAGGAA,0.0596
7,CGTGGTA,-0.0278
8,CCGAGGG,-0.0236
9,GAGAAAC,-0.000296
10,AACGGGC,0.00316
11,GCGAAGT,-0.022
12,CTCGCGG,-0.229
13,TCGTCTC,-0.112
14,ATTTTTA,-0.0603
15,TTGGCTC,-0.0651
16,CATAAGT,0.0558
17,CATGGGG,0.0714
18,AATTACG,-0.0118
19,CACTATG,0.103
20,AGACGAG,0.0948

row,Sequence,uncleaved DNA left (log2)
1,TTTCGAA,-0.0216
2,CGCGTTA,0.0925
3,CCGTGAG,0.0286
4,GTCTTCT,-0.00233
5,GTCGGCA,-0.0497
6,ACCGCTT,-0.0827
7,CCGGGGT,-0.154
8,CGCCGGG,0.0648
9,TGCTCCT,-0.0611
10,ACGGCAA,0.0117
11,TCTACAC,0.0289
12,TGCTCTA,-0.118
13,TCCCAAC,0.0803
14,TTCAGCT,-0.0215
15,CCCAAAT,0.0689
16,CACCCGG,-0.14
17,CTTGGGC,0.0348
18,ACGTGCA,-0.0578
19,TAGGCTC,0.0865
20,TTACCTT,-0.177

# System: T3, Rep nickase domain of maize striate mosaic virus
# T3 sequence (residues 1-117, tag not shown): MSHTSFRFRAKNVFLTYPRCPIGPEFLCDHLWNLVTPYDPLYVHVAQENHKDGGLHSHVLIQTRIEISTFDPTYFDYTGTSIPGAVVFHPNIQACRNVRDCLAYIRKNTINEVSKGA
# Experiment: as above
# Method: as §1
row,Sequence,uncleaved DNA left (log2)
1,TTCTGAG,-0.518
2,ACTTGTT,-0.874
3,TGGAGCC,0.185
4,ATGCACA,-0.76
5,CGCTTTA,-0.497
6,CTAGGAA,1.38
7,CGTGGTA,0.812
8,CCGAGGG,0.247
9,GAGAAAC,1.21
10,AACGGGC,0.835
11,GCGAAGT,0.189
12,CTCGCGG,1.94
13,TCGTCTC,0.0257
14,ATTTTTA,-0.684
15,TTGGCTC,-0.318
16,CATAAGT,-1.19
17,CATGGGG,-0.825
18,AATTACG,-0.817
19,CACTATG,-0.917
20,AGACGAG,-0.436

row,Sequence,uncleaved DNA left (log2)
1,TTTCGAA,-0.48
2,CGCGTTA,-0.748
3,CCGTGAG,-0.503
4,GTCTTCT,1.66
5,GTCGGCA,1.36
6,ACCGCTT,-0.721
7,CCGGGGT,1.93
8,CGCCGGG,1.28
9,TGCTCCT,0.0841
10,ACGGCAA,-0.532
11,TCTACAC,-0.283
12,TGCTCTA,-0.352
13,TCCCAAC,-0.42
14,TTCAGCT,-1.1
15,CCCAAAT,-0.737
16,CACCCGG,0.918
17,CTTGGGC,-0.794
18,ACGTGCA,-0.959
19,TAGGCTC,0.519
20,TTACCTT,-0.266

# System: T4, Rep nickase domain of porcine circovirus 2
# T4 sequence (residues 2-116, tag not shown): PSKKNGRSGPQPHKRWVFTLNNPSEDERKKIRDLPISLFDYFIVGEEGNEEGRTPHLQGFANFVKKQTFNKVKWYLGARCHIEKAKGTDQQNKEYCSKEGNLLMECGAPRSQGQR
# Experiment: as above
# Method: as §1
row,Sequence,uncleaved DNA left (log2)
1,TTCTGAG,0.226
2,ACTTGTT,-3.64
3,TGGAGCC,-0.199
4,ATGCACA,-0.0312
5,CGCTTTA,-0.317
6,CTAGGAA,0.116
7,CGTGGTA,0.00153
8,CCGAGGG,0.098
9,GAGAAAC,0.0535
10,AACGGGC,0.0495
11,GCGAAGT,-0.0621
12,CTCGCGG,0.057
13,TCGTCTC,-0.543
14,ATTTTTA,-0.62
15,TTGGCTC,-0.202
16,CATAAGT,-0.127
17,CATGGGG,0.117
18,AATTACG,0.198
19,CACTATG,-0.0269
20,AGACGAG,0.158

row,Sequence,uncleaved DNA left (log2)
1,TTTCGAA,-0.0586
2,CGCGTTA,-0.131
3,CCGTGAG,0.13
4,GTCTTCT,-0.376
5,GTCGGCA,0.0921
6,ACCGCTT,-0.106
7,CCGGGGT,0.0449
8,CGCCGGG,0.124
9,TGCTCCT,-1.21
10,ACGGCAA,0.153
11,TCTACAC,0.0476
12,TGCTCTA,-0.388
13,TCCCAAC,-0.0367
14,TTCAGCT,-0.0494
15,CCCAAAT,-0.166
16,CACCCGG,0.063
17,CTTGGGC,0.21
18,ACGTGCA,-0.206
19,TAGGCTC,-0.161
20,TTACCTT,-1.69

# System: T5, Rep nickase domain of tomato golden mosaic virus
# T5 sequence (residues 1-124, tag not shown): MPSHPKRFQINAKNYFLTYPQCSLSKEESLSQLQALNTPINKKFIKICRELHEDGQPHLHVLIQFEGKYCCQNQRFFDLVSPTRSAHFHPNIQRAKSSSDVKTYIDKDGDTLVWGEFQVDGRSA
# Experiment: as above
# Method: as §1
row,Sequence,uncleaved DNA left (log2)
1,TTCTGAG,0.132
2,ACTTGTT,-0.114
3,TGGAGCC,-0.195
4,ATGCACA,-0.00478
5,CGCTTTA,0.159
6,CTAGGAA,0.137
7,CGTGGTA,0.115
8,CCGAGGG,-0.00568
9,GAGAAAC,0.022
10,AACGGGC,0.0879
11,GCGAAGT,-0.0923
12,CTCGCGG,0.0771
13,TCGTCTC,-0.256
14,ATTTTTA,-0.162
15,TTGGCTC,-0.116
16,CATAAGT,0.128
17,CATGGGG,0.176
18,AATTACG,0.0288
19,CACTATG,0.147
20,AGACGAG,0.0194

row,Sequence,uncleaved DNA left (log2)
1,TTTCGAA,-0.0468
2,CGCGTTA,-0.143
3,CCGTGAG,-0.108
4,GTCTTCT,0.0629
5,GTCGGCA,0.0596
6,ACCGCTT,-0.0347
7,CCGGGGT,0.0119
8,CGCCGGG,0.0928
9,TGCTCCT,-0.131
10,ACGGCAA,0.166
11,TCTACAC,0.0524
12,TGCTCTA,-0.0774
13,TCCCAAC,0.0448
14,TTCAGCT,-0.0864
15,CCCAAAT,0.0954
16,CACCCGG,0.185
17,CTTGGGC,0.051
18,ACGTGCA,-0.0241
19,TAGGCTC,0.0838
20,TTACCTT,-0.224
